# Residue numbers refer to the chain shown, from its start. This is one part of the list.
# T1: RBFOX1 RRM (Homo sapiens, UniProt Q9NWB1 109-208)
# T1 sequence: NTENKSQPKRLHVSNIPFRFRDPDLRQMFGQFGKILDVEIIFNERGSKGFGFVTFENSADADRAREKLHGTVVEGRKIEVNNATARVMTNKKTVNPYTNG
# B1: UCACUAA (DNA:RNA)
# RNA: GGGAGACCGGAAUUCAGAUUGUCCUCACUAAUUAAAUCCCGUCGUAGCCACCA
# DNA 1: CAATCTGAATTCCGGTCTCCC
# DNA 2: TGGTGGCTACGACGGGATT
# B2: CUAGAAA (DNA:RNA)
# RNA: B1 RNA with U25C, C26U, C28G, U29A
# DNA 1: CAATCTGAATTCCGGTCTCCC
# DNA 2: TGGTGGCTACGACGGGATT
# B3: GUUCUCG (DNA:RNA)
# RNA: B1 RNA with U25G, C26U, A27U, A30C, A31G
# DNA 1: CAATCTGAATTCCGGTCTCCC
# DNA 2: TGGTGGCTACGACGGGATT
# B4: UGCUAUU (DNA:RNA)
# RNA: B1 RNA with C26G, A27C, C28U, U29A, A30U, A31U
# DNA 1: CAATCTGAATTCCGGTCTCCC
# DNA 2: TGGTGGCTACGACGGGATT
# B5: GGCGUGU (DNA:RNA)
# RNA: B1 RNA with U25G, C26G, A27C, C28G, A30G, A31U
# DNA 1: CAATCTGAATTCCGGTCTCCC
# DNA 2: TGGTGGCTACGACGGGATT
# B6: GUCUACU (DNA:RNA)
# RNA: GGGAGACCGGAAUUCAGAUUGUCCGUCUACUUUAAAUCCCGUCGUAGCCACCA
# DNA 1: CAATCTGAATTCCGGTCTCCC
# DNA 2: TGGTGGCTACGACGGGATT
# B7: AUUAUGG (DNA:RNA)
# RNA: B6 RNA with G25A, C27U, U28A, A29U, C30G, U31G
# DNA 1: CAATCTGAATTCCGGTCTCCC
# DNA 2: TGGTGGCTACGACGGGATT
# B8: GUGCAGG (DNA:RNA)
# RNA: B6 RNA with C27G, U28C, C30G, U31G
# DNA 1: CAATCTGAATTCCGGTCTCCC
# DNA 2: TGGTGGCTACGACGGGATT
# B9: GCCCUCG (DNA:RNA)
# RNA: B6 RNA with U26C, U28C, A29U, U31G
# DNA 1: CAATCTGAATTCCGGTCTCCC
# DNA 2: TGGTGGCTACGACGGGATT
# B10: UAAUUUA (DNA:RNA)
# RNA: B1 RNA with C26A, C28U, A30U
# DNA 1: CAATCTGAATTCCGGTCTCCC
# DNA 2: TGGTGGCTACGACGGGATT
# B11: AACAGUG (DNA:RNA)
# RNA: B6 RNA with G25A, U26A, U28A, A29G, C30U, U31G
# DNA 1: CAATCTGAATTCCGGTCTCCC
# DNA 2: TGGTGGCTACGACGGGATT
# B12: UUGUCAA (DNA:RNA)
# RNA: B1 RNA with C26U, A27G, C28U, U29C
# DNA 1: CAATCTGAATTCCGGTCTCCC
# DNA 2: TGGTGGCTACGACGGGATT
# B13: AUGUAAU (DNA:RNA)
# RNA: B6 RNA with G25A, C27G, C30A
# DNA 1: CAATCTGAATTCCGGTCTCCC
# DNA 2: TGGTGGCTACGACGGGATT
# B14: GUCUAAA (DNA:RNA)
# RNA: B6 RNA with C30A, U31A
# DNA 1: CAATCTGAATTCCGGTCTCCC
# DNA 2: TGGTGGCTACGACGGGATT
# B15: AUGGCGC (DNA:RNA)
# RNA: B6 RNA with G25A, C27G, U28G, A29C, C30G, U31C
# DNA 1: CAATCTGAATTCCGGTCTCCC
# DNA 2: TGGTGGCTACGACGGGATT
# B16: GGCCACU (DNA:RNA)
# RNA: B6 RNA with U26G, U28C
# DNA 1: CAATCTGAATTCCGGTCTCCC
# DNA 2: TGGTGGCTACGACGGGATT
# B17: CCGAGCU (DNA:RNA)
# RNA: B6 RNA with G25C, U26C, C27G, U28A, A29G
# DNA 1: CAATCTGAATTCCGGTCTCCC
# DNA 2: TGGTGGCTACGACGGGATT
# B18: CUUUCGC (DNA:RNA)
# RNA: B6 RNA with G25C, C27U, A29C, C30G, U31C
# DNA 1: CAATCTGAATTCCGGTCTCCC
# DNA 2: TGGTGGCTACGACGGGATT
# B19: CGUUGCG (DNA:RNA)
# RNA: B6 RNA with G25C, U26G, C27U, A29G, U31G
# DNA 1: CAATCTGAATTCCGGTCTCCC
# DNA 2: TGGTGGCTACGACGGGATT
# B20: GUCCGUU (DNA:RNA)
# RNA: B6 RNA with U28C, A29G, C30U
# DNA 1: CAATCTGAATTCCGGTCTCCC
# DNA 2: TGGTGGCTACGACGGGATT
# Biological target: T1, RBFOX1 RRM
# Test: EMSA; HiTS-Eq, 1 nM pool, 10 min; buffer printed only for the single-RNA assays: 10 mM Tris pH 7.5, 150 mM NaCl, 3.4 mM EDTA, 0.001% NP-40, 30 C
# Settings: tags: His6 N-terminal (pET28a); label: 5' 32P
# Method in brief: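 Purified wild-type or mutant RbFox RRM at increasing concentrations was equilibrated with 1 nM of 5′-radiolabelled RNA carrying 7 randomized nucleotides for 10 min in 50 µL. Unbound RNA was separated by 8% native PAGE and sequenced. Relative association constants came from read-count changes of each RNA species compared with the control reaction, normalised to the cognate motif.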
row,Binder,binding signal
1,B1,0.00309 KA relative to UGCAUGU
2,B2,0.00471 KA relative to UGCAUGU
3,B3,0.0248 KA relative to UGCAUGU
4,B4,0.0127 KA relative to UGCAUGU
5,B5,0.0166 KA relative to UGCAUGU
6,B6,0.00683 KA relative to UGCAUGU
7,B7,0.00808 KA relative to UGCAUGU
8,B8,0.0187 KA relative to UGCAUGU
9,B9,0.0107 KA relative to UGCAUGU
10,B10,0.00382 KA relative to UGCAUGU
11,B11,0.00691 KA relative to UGCAUGU
12,B12,0.0169 KA relative to UGCAUGU
13,B13,0.0035 KA relative to UGCAUGU
14,B14,0.00371 KA relative to UGCAUGU
15,B15,0.0174 KA relative to UGCAUGU
16,B16,0.00851 KA relative to UGCAUGU
17,B17,0.00909 KA relative to UGCAUGU
18,B18,0.0133 KA relative to UGCAUGU
19,B19,0.0173 KA relative to UGCAUGU
20,B20,0.0114 KA relative to UGCAUGU

# From article PMC9911399, “Two distinct binding modes provide the RNA-binding protein RbFox with extraordinary sequence specificity”
